# Source: the antibiotic and cytotoxicity screens of Wong et al. (2023)
# The list shows a part of the results.
# Key:
# [1] = test system: HSkMC (human skeletal muscle cells); test: cytotoxicity call (relative viability < 0.9); conditions: 10 µM
# [2] = test system: HepG2; test: cytotoxicity call (relative viability < 0.9); conditions: 10 µM
# [3] = test system: S. aureus RN4220; test: growth inhibition call (relative growth <= 0.2); conditions: 50 µM
SMILES,cytotoxicity call [1],cytotoxicity call [2],growth inhibition call [3]
O=C([C@H]1[C@H](CO)[C@H]2Cn3c(cccc3=O)[C@@H]1N2S(=O)(=O)c1ccccc1F)N1CCOCC1,inactive,inactive,inactive
C[C@H]1CC/C=C\[C@H]2O[C@@]34C=CCN(c5ccc(Cl)cc5)C(=O)[C@H]3N(CCCO)C(=O)[C@]4(C)[C@@H]2C(=O)O1,inactive,inactive,inactive
Cc1ccc(S(=O)(=O)Nc2ccc3c(c2)C(=O)N([C@@H](C)CO)C[C@@H](C)[C@H](CN(C)C(=O)NC2CCCCC2)OCCCC[C@@H](C)O3)cc1,inactive,active,inactive
C[C@H](CO)N1C[C@H](C)[C@@H](CN(C)C(=O)Nc2ccc3c(c2)OCCO3)OCc2cn(nn2)CCCC1=O,inactive,inactive,inactive
COc1cccc(NC(=O)Nc2ccc3c(c2)C(=O)N(C)C[C@@H](OC)[C@H](C)CN(CCC(F)(F)F)[C@H](C)CO3)c1,inactive,inactive,inactive
C=CCOC(=O)[C@@H]1[C@H]2C(=O)O[C@H](c3ccccc3)[C@H](c3ccccc3)N2[C@H](c2ccc(OCCOC(=O)NCCCCCC(=O)NO)cc2)[C@]12C(=O)Nc1ccc(I)cc12,inactive,inactive,inactive
CNC(=O)Nc1ccc(-c2nc(N3C[C@H]4CC[C@@H](C3)O4)c3cnn(C4CCC5(CC4)OCCO5)c3n2)cc1,active,inactive,inactive
Cc1cc(CN)cc(C)c1NC(=O)c1ccc(-c2cc(Cl)ccc2Cl)o1,active,active,active
C[C@@H]1CN([C@@H](C)CO)C(=O)CCCn2cc(nn2)CO[C@@H]1CN(C)Cc1ccc(C(=O)Nc2ccccc2N)cc1,inactive,inactive,inactive
O=C(C[C@@H]1CC[C@@H]2[C@H](COC[C@H](O)CN2S(=O)(=O)c2ccccc2Cl)O1)NCCc1ccncc1,inactive,inactive,inactive
C[C@H](CO)N1C[C@H](C)[C@@H](CN(C)C(=O)Nc2cccc3ccccc23)Oc2ccc(NC(=O)NC3CCCCC3)cc2CC1=O,inactive,inactive,inactive
CC(C)NC(=O)Nc1cccc2c1O[C@@H](CN(C)Cc1ccc3c(c1)OCO3)[C@H](C)CN([C@H](C)CO)C2=O,inactive,inactive,inactive
COc1ccc(CN(C)C[C@@H]2OCCCC[C@@H](C)Oc3ccc(NS(=O)(=O)c4ccccc4)cc3C(=O)N([C@H](C)CO)C[C@@H]2C)cc1,inactive,inactive,inactive
COc1ccc2c3c([nH]c2c1)[C@@H](CO)N(C[C@]13CN(C)C1)C(=O)CN1CCOCC1,inactive,inactive,inactive
CC(C)NC(=O)N(C)C[C@H]1Oc2ccc(NS(=O)(=O)c3cn(C)cn3)cc2C(=O)N([C@H](C)CO)C[C@H]1C,inactive,inactive,inactive
CN(C)CC(=O)N1CC(=O)N2[C@H](CO)[C@@H](c3ccc(C#Cc4cccnc4)cc3)[C@H]2C1,inactive,inactive,inactive
COc1cccc(C#Cc2ccc3c(c2)O[C@@H](CN(C)C(C)=O)[C@H](C)CN([C@@H](C)CO)S3(=O)=O)c1,inactive,inactive,inactive
C[C@H](CO)N1C[C@H](C)[C@H](CN(C)Cc2ccc(Oc3ccccc3)cc2)Oc2ccc(NC(=O)C3CCCCC3)cc2CC1=O,inactive,active,inactive
NCCC(O)(P(=O)(O)O)P(=O)(O)O,inactive,inactive,inactive
C[C@@H]1CN([C@@H](C)CO)S(=O)(=O)c2ccc(C#Cc3cccnc3)cc2O[C@@H]1CN(C)CC1CCOCC1,inactive,inactive,inactive
O=C(O)[C@H]1C[C@H](O)CN1Cc1ccccc1,inactive,inactive,inactive
COC(=O)C[C@@H]1CC[C@@H]2[C@H](COC[C@H](O)CN2S(=O)(=O)c2ccc(F)cc2)O1,inactive,inactive,inactive
COC(=O)c1cc(OC)c(OC)c(OC)c1,inactive,inactive,inactive
COc1ccc(S(=O)(=O)N(C)C[C@H]2OCCCC[C@@H](C)Oc3ccc(NC(=O)Nc4ccc(C(F)(F)F)cc4)cc3C(=O)N([C@@H](C)CO)C[C@@H]2C)cc1,active,inactive,inactive
COc1ccc(S(=O)(=O)N(C)C[C@@H]2Oc3ccc(NC(=O)Nc4cccc5c4CCCC5)cc3CC(=O)N([C@@H](C)CO)C[C@@H]2C)cc1Cl,inactive,inactive,inactive
O=C(O)c1cc(S(=O)(=O)NCCN2CCNC2=O)ccc1O,inactive,inactive,inactive
